In the supplement of paper PMC10126150:
Sequences with one replicate were seen in a single cluster, so their values are uncertain.

Tested on: ATP
Test: switch fluorescence ratio, 500 uM ATP over buffer (Cy3 cluster intensity, sum of 5 cycles each) (fold (ratio)); higher = stronger signal-on switching upon ATP binding; sequences stand for … in TCGTCGGCAGCGTCAGATGTGTATAAGAGACAGTTTTTTTTTTTTTTTTTTTTTTTTT…TC
Settings: aptamer strand: ATP DNA aptamer (quencher-CACCTGGGGGAGTATTGCGGAGGAAGG + anchor), 100 nM annealed; ATP concentration: 500 uM; one replicate
Outline: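 Clusters carrying Cy3-labelled switching strands on a modified Illumina MiSeq flow-cell were annealed to 100 nM quencher-labelled ATP aptamer and imaged in selection buffer. They were imaged again after 15 min with 500 uM ATP at 22 °C, over five buffer/ATP cycles with NaOH stripping and re-annealing in between. For each cluster, the fluorescence ratio is the summed Cy3 intensity of the target cycles divided by that of the buffer cycles, averaged per switch-domain sequence. Clusters outside 100-1000 RFU were left out.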
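Further: ATP exposure 15 min at 22 °C before imaging.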

Sequence | switch fluorescence ratio
TTGTAGACT | 1.03
GCACTCGTTC | 1.03
ATAAAAGTGC | 1.12
TCTGAGTATT | 1.01
CCTACAATT | 1.04
TAGGCTATGT | 0.958
TTTGATTTGA | 0.92
TTCAGATGGA | 1
CTGACTGAAT | 1.05
TGAAAAACTT | 1.02
AACCGAGGA | 1.04
TGACTCTGGG | 1.01
ATTTAACTAA | 0.995
CGACTGAATA | 1.08
CGCCTGCATC | 1.89
ACATAAATTG | 1.04
CATTCTCGGC | 1.1
GTTATAGTCC | 1.06
TTTGTAAAT | 1.13
ACTGTTAGAA | 1.03
GCCAACCCTT | 1.08
ATACTAAGAG | 1.01
TATTCGTGTG | 0.978
ACCGCTCCTT | 1.07
TTTGACGCAC | 1.81
GGTAATCGAT | 0.983

Sequence | switch fluorescence ratio
TCATCCGCT | 1.96
GTATTTGATT | 0.93
TTGGGGACAA | 1.07
CGCACTAGGC | 1.27
AGTTATGACA | 0.976
AGTACTTTAT | 1.03
GAGATTTTAT | 1.01
TTGGAGCATA | 2.45
GATAATGGCT | 1.01
TATTTTCACA | 1.04
CGTGCATCTA | 0.999
GGGGCTGATC | 1.09
GCTGCATTGT | 1
GGGGCTGTCA | 0.954
CCGGTAGTTA | 1.21
TGCCCACGCA | 1.07
AGTAAAAAGC | 0.944
GCGGTTGAAA | 1
TGTTGTCACA | 1.01
AAAGTTGATA | 0.951
TATGGATTTG | 1.01
AGGCTGTAAA | 1
TAGGCTGAAC | 1.01
GTAATGGCAA | 1.07
GGTCAGCGCC | 1
CGCGGGTGCT | 0.996

Sequence | switch fluorescence ratio
TGCCGGTTAT | 0.99
GACCTCGAAT | 1.01
GCCTGA | 1
CCATGCCTCC | 1.62
AATCGTAAAC | 1.11
CTGGCTGAAG | 1.02
AATAGACAGG | 1.05
TGTACTACAT | 1.08
ATAAGAGTA | 0.979
CCGGGTGTCC | 1.5
TCCGGGGAGT | 1.08
AATATGGTGG | 0.985
GCGGTCGGGG | 1.13
TGGTATCAAA | 0.995
ATTATTGTG | 1.05
TATGAGTTAA | 0.998
TTGATCCTGA | 1.01
TCAATACTGA | 1.19
AGGTCTCGGG | 1.03
GAATAACGCA | 1.14
CGCTCAGAGT | 1.05
AGCAGAATT | 1.01
GGTATACAGG | 1.01
GTCTCGCATA | 1.26
AGATTTTCA | 1.03
AAAGTCTGAA | 0.971

Sequence | switch fluorescence ratio
TTCCTCCATT | 1.04
CGGTGGAAGC | 1.12
CTCGCCGTAG | 1.05
GATGTCCTAG | 0.96
AGCTGTCGCG | 0.957
GTCATTATTT | 1.01
GCGCTACGCC | 1.01
TCATTTTGT | 1.02
TTGCTTGTTC | 0.984
TTCATAGCAA | 1.1
TCAGTAAAGA | 0.927
AGTCTGTGGC | 0.924
TCGAGTCCAG | 1.13
GCCGGTGTCT | 1
TGAGTATAAG | 0.974
TAATAACGCT | 0.984
TATCCCGATT | 0.992
GTGTTGAGAC | 0.946
CGTCAGCGTG | 1.02
GATTGCTATA | 0.998
TTTCATAAAG | 1.02
CTGAGTTCA | 0.988
AATATCGAA | 0.934
TAAGTACTGG | 1.32
ATATCCGCAC | 6.17
TTAAGTTTGC | 0.97

Sequence | switch fluorescence ratio
CAGGGACGAC | 1.06
ACTTGCGTTA | 1.03
TAGAAAGATG | 1
GTTTATGGGG | 1.04
CCCGCGTCCA | 1.33
GCCCTGATAA | 1.01
GAGCTATCTT | 1.02
TGTTCATTCT | 0.997
TAAAAGGATA | 0.957
GTTCCCTAA | 1.02
AACCTGTTTG | 1
AACTTACCAT | 1.06
TGTTAATTAT | 1.01
GCGCTGGAGG | 0.99
ATGGATGTG | 1
GCAGGAAACC | 1.05
CACCTGACCT | 1.4
ATTCGAGAG | 1.01
TCTCTCCAAT | 1.72
CAGCGGATTA | 1.01
GCAAGTTCGC | 1.05
CCGTTGCTAA | 3.55
CGGGTTGGCG | 0.943
GGTGTATTCA | 1
ACGAGATGGG | 1.03
TAGGTTATTT | 1

Sequence | switch fluorescence ratio
TGCTCACTAA | 1.02
ATGGACCGAT | 1.04
GAGTTCGGAG | 0.953
GCCTAAAAGT | 0.979
TCTAGCTGTG | 1.03
AAAGAATTAT | 0.938
TACGGCATTT | 0.985
CACTGAGTCC | 1.19
AAGAAAACGT | 1.09
GCGCATCGCC | 1.07
GGTCTCCCTT | 1.15
TAGTTTAAAT | 1.03
AGAACTGGGT | 0.992
ATGAATTCGC | 1.05
ATCCTCCTTT | 1.07
GCTGATCAAC | 1.01
ATGTACAGGT | 1.09
TTGAACCAGA | 0.984
TTCAGCTGCG | 1.02
ACAAAATAAT | 0.982
CAGATGAGAG | 0.983
TATGTTGTGC | 1
TAAGACACTA | 1.08
AATAAGATT | 1
GGTTAATTTG | 1
TGGTGAAGC | 1.04

Sequence | switch fluorescence ratio
AAGAAGGGGG | 0.93
TCGTTGATGG | 0.99
GGACTAAATG | 1.01
TAATGCAAGC | 1.35
GTTCGGAACT | 1.03
AGGCTCTATG | 1.01
GCGGCTAGAT | 1.03
ATGCTGCGTT | 1.01
AGTTTGCGGA | 1.01
GTGGGGAGAA | 0.965
ATGTGTTGTC | 1.03
TGATGAGCTT | 1.01
ACATGGCGAG | 0.961
AAAATCATCG | 0.991
GTAGTCAGTC | 1.04
GCTGATCGGA | 1.02
CGACCAGTGA | 1.4
TGCCCGGCGA | 1.21
GTCTTACAAA | 1
CCAGATGTGG | 0.99
CGACGTGGTC | 1.12
GCAGGCCTCC | 1.24
GGTCAGATT | 1
GCTTTTACCG | 1.04
GCCAATGGGA | 1.01
GCTACTGTGA | 1

Sequence | switch fluorescence ratio
AAGAACCGTA | 0.94
TGGCAGGAGA | 1.05
GGTTTGGAAT | 1.06
CGTCCGACCC | 2.21
CCTTGAGATC | 1.04
TTGCTTCGTG | 0.96
AGCCGGGCAT | 0.966
GATCTATGCA | 0.992
TACACTGGTT | 1
CTGCGGGAAC | 1.19
TCTCAAGCCC | 1.1
GGTATCCAGC | 1.01
GGCTAGGGCG | 1.03
GTAGCACGTG | 1.02
GCCTGAAAGT | 0.971
TATCAGTCCC | 1.01
TAATGATCCA | 0.965
TGATCTATAT | 0.96
AGTCCTTTGG | 0.988
